# PubChem BioAssay AID624202 (National Center for Advancing Translational Sciences (NCATS), 2012)
# Among all 380,000 compounds or so, about 4,000 (1.1%) were called active. The shares of active, inactive and inconclusive entries below differ from those in the screen. The call rests on the fitted dose curve; in most records, active means well fitted activation curve with a large enough effect; inconclusive means small, poorly fitted or top-dose-only effect; inactive means no such curve, though single readings can be large or run the other way. Potencies of inconclusive entries are doubtful fits and often do not repeat.
# Experiment: qHTS Assay to Identify Small Molecule Activators of BRCA1 Expression; further: nearly all actives have a fitted effect of over 80% in size
# Settings: MCF7-BRCA1-FFLuc reporter, luminescence, 48 h; activation: at 46.1 µM (top of the series), scaled: vehicle 0%, 10 µM genistein 100% unless noted
# In short: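 Luminescence from a BRCA1-driven firefly luciferase in MCF7 cells was read after 48 h compound exposure at 37 C. Data normalized against DMSO and a 10microM genistein activation control, then curve-fitted across the titration.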
# Potency means the concentration at half of the fitted maximal effect; tags describe the fitted curve by direction and shape.
SMILES,Potency,activation
COc1ccc(-c2cc(=O)c3ccccc3o2)cc1,"inconclusive: 20 µM [activator, partial curve, poor fit]",
COc1ccc(-c2nnc(SCC(=O)N3CCCC3)o2)cc1,"inconclusive: 11.2 µM [activator, partial curve, poor fit]",
CC1(C(=O)NCc2ccco2)CCN1C(=O)C1(c2ccccc2)CC1 (stereo unspecified),,inconclusive: -67.3% [activator]
O=C(Nc1ccc2c(c1)OCO2)Nc1ccc2c(c1)OCO2,"inconclusive: 1 µM [activator, full curve, poor fit]",
COc1ccccc1NC(=O)C(C)OC(=O)CCCc1c[nH]c2ccccc12 (stereo unspecified),inactive,
CC(C)N1CC(C(=O)Nc2ccc(Cl)c([N+](=O)[O-])c2)CC1=O (stereo unspecified),inactive,
COc1ccccc1-c1cnc(C(O)c2ccc(CN3CCCC3)cc2)[nH]1 (stereo unspecified),inactive,
Cn1ccc2c(-c3ccc(C(=O)O)cc3)cc3c(c21)C1CCC3C1 (stereo unspecified),"inconclusive: 7.08 µM [activator, partial curve, poor fit]",
CC1(C)CCCN(C(=O)N2c3ccccc3Sc3ccccc32)C1,inactive,
O/N=C/c1cc(Br)cs1,inactive,
O=C(/C=C/c1ccccc1)NCCC1=CCCCC1,"inconclusive: 5.01 µM [activator, partial curve, poor fit]",
CCCCN1CCc2c([nH]c3c(C)cccc23)C1=O,"inconclusive: 7.94 µM [activator, partial curve, poor fit]",
Cc1nccc(-c2cc(-c3ccc(Cl)cc3Cl)no2)n1,"inconclusive: 2.51 µM [activator, full curve, poor fit]",
Cc1cc(-c2nc3ccccc3c(=O)o2)ccc1[N+](=O)[O-],"inconclusive: 14.1 µM [activator, single point]",
CN(C)c1ccc(/C=C/C(=O)c2ccc(O)cc2)cc1,inactive,
O=C(c1ccco1)N1CCN(c2cccc(Cl)c2)CC1,"inconclusive: 12.6 µM [activator, single point]",
CCN(CC)CCCSc1nc2ccccc2s1,"inconclusive: 11.2 µM [activator, partial curve, poor fit]",
COc1ccc(NC(=O)c2ccc(C)o2)c([N+](=O)[O-])c1,"inconclusive: 12.6 µM [activator, partial curve, poor fit]",
Cc1cc(NC(=O)c2cc(C3CC3)on2)no1,active: 6.31 µM,
O=C(NCCc1ccc(Cl)cc1)c1cnc2n(c1=O)CCS2,"inconclusive: 35.5 µM [activator, single point]",
c1ccc2c(c1)Cn1c-2nc2ccccc21,"inconclusive: 1.78 µM [activator, full curve, poor fit]",
